Screen size: about 150,000 compounds; about 6,500 (4.3%) were called active. The inconclusive results got no clear call from the source; some entries with a clear call stand among them for comparison. The call rests on the fitted dose curve; in most records, active means well fitted inhibition curve with a large enough effect (not every such curve was filed as active); inconclusive means small, poorly fitted or top-dose-only effect, or another doubt; inactive means no such curve, though single readings can be large or run the other way. Potencies beside an inconclusive call are fits to weak or partial responses and may not hold up.
target: 15-hydroxyprostaglandin dehydrogenase [NAD(+)] (Homo sapiens) (UniProt P15428); assay: qHTS Assay for Inhibitors of HPGD (15-Hydroxyprostaglandin Dehydrogenase); details: purified HPGD, NADH fluorescence kinetic, PGE2 substrate; activity change, negative = inhibition: hits give low values
UniProt P15428, sequence (P15428 whole entry, looked up): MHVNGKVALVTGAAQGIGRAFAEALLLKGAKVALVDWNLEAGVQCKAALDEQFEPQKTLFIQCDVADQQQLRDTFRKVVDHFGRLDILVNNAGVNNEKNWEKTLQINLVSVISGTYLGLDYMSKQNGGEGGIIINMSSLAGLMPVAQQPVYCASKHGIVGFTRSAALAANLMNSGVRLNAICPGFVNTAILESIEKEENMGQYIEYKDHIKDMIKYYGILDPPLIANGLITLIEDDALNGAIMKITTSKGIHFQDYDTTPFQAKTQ
In short: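 20 nM HPGD preincubated 15 min at room temperature with compound in 50 mM Tris-HCl pH 8, 0.01% Tween 20. Started with 1 mM NAD+ and 30 uM prostaglandin E2; NADH fluorescence (360/450 nm) read 5 times over 30-s intervals, last minus first.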
On the % scale 0 is the no-effect control and ±100 the full control effect; potency means the concentration at half of the fitted maximal effect; tags describe the fitted curve by direction and shape.

Activity change, negative = inhibition, inactive:
Cc1ccc(S(=O)(=O)N2CCN(C(=O)CSc3nc4ccccc4c(=O)[nH]3)CC2)cc1 -15%
CCCC(=O)N(C)c1nnc(-c2ccc(OC)cc2)s1 -17.1%
Fc1ccc(CSc2ccc(-c3ccco3)nn2)cc1 -8.07%
CCC(CO)NCc1ccc(-c2ccccc2)cc1 (stereo not drawn) -1.93%
Cc1ccc(-c2nnc(SCC(=O)N3CCCC3)o2)cc1C -26.5%
CCC(C)NS(=O)(=O)c1ccc(S(=O)(=O)Nc2cc3c(cc2C(C)=O)OCO3)cc1 (stereo not drawn) -20.4%
CC(C)C(NC(=O)CN1C(=O)c2ccccc2S1(=O)=O)C(C)C -11.2%
O=C(CN1C(=O)C2(OCCO2)c2ccccc21)c1ccc(F)cc1 -2.61%
Cc1ccc(-n2c(C)cc(/C=N/NC(=O)c3ccncc3)c2C)c(C)c1 -14.7%
CC(C)C(NS(=O)(=O)c1cccs1)C(=O)N1CCc2ccccc2C1 (stereo not drawn) -1.08%
CN(C)c1ccc(C2N(c3ccc(F)cc3)C(=O)C3CCCN32)cc1 (stereo not drawn) -25.4%
O=C(COc1ccc(Cl)cc1)NC1=NN(c2ccccc2)C(=O)C1 -6.77%
COc1cccc2c1CCC1CC(=O)CC[C@@]21C (stereo partly drawn) -13.1%
CSc1ccccc1NC(=S)Nc1ccccc1C(F)(F)F -1.25%
Cc1cc(N2CCC(C)CC2)nc(SCC(=O)c2ccccc2)n1 -9.7%
CS(=O)(=O)N(Cc1ccc(C(=O)NN=C2CCCCCC2)cc1)c1ccccc1 -9.89%
Cc1ccc2nc3ccc(N4CCCCCCC4)nn3c(=O)c2c1 -27.3%
Cn1nnc(NC(=O)c2ccco2)n1 -3.77%
OC[C@H]1O[C@@H](n2cnc3c(NCCc4ccccc4)ncnc32)[C@H](O)[C@H]1O -3.29%
Cc1ccc(S(=O)(=O)NNC(=O)c2sc(=S)n(C)c2C)cc1 -10.6%
O=C(N/N=C/c1ccccc1OCc1ccccc1)c1cccnc1 -12.1%
C=C(C)COc1ccc(-c2[nH]ncc2Oc2ccccc2OC)c(O)c1 -14.3%
Cc1ccc(C)c(NS(=O)(=O)c2ccc3c(c2)Cc2cc(S(=O)(=O)Nc4cc(C)ccc4C)ccc2-3)c1 -7.65%
Cc1ccc(S(=O)(=O)NNC(=O)c2ccncc2)cc1 -1.57%
Cc1nn(Cc2ccccc2)c(Cl)c1C(=O)OCC(=O)NC(=O)NC12CC3CC(CC(C3)C1)C2 -15.2%

Potency, active:
CC1Cc2nc(SCC(=O)NC3CCCCC3)n(C)c(=O)c2S1 (stereo not drawn) 39.8 µM
CCN(CC)c1ccc(/C=N/Nc2ccc(C)cc2)c(O)c1 31.6 µM
COc1ccccc1-c1n[nH]c(=S)n1-c1ccccc1 31.6 µM
Cc1ccc(O)c(C2=NOC(O)(C(F)(F)F)C2)c1 (stereo not drawn) 14.1 µM
CCCCNC(=O)c1sc(=S)n(-c2ccccc2OC)c1N 31.6 µM
Cc1cccc(-n2c(-c3csc(C)c3)n[nH]c2=S)c1 14.1 µM
Cc1cccc(N2CCN(C(=S)c3ccc([N+](=O)[O-])cc3)CC2)c1 7.94 µM
COc1cc(C(=S)N2CCOCC2)cc(OC)c1OC(=O)Cc1ccc(F)cc1 15.8 µM
CC(=O)Nc1ccccc1-c1nnc(SCc2ccccc2Cl)[nH]c1=O 15.8 µM

Potency, inconclusive:
CCN(CC)c1nc2ccccc2c(N)c1-c1ccccc1 31.6 µM [inhibitor, partial curve]
CC(=O)N1CCN(c2ccc(NC(=O)c3ccc(C)cc3)cc2)CC1 35.5 µM [inhibitor, single point]
CN1CCc2c(sc3c2C(=O)NC(c2cccc(OC(=O)c4cccs4)c2)N3)C1 (stereo not drawn) 17.8 µM [inhibitor, partial curve]
Cc1ccc(CNC(=O)c2cc3c(=O)n4ccccc4nc3n(CC3CCCO3)c2=N)cc1 (stereo not drawn) 31.6 µM [inhibitor, partial curve]
Cc1cc(-c2cc(-c3ccc(Cl)cc3)nc(N)c2C#N)co1 39.8 µM [inhibitor, single point]
COCCNC(=O)CSc1nc(-c2ccccc2)c(-c2ccccc2)o1 3.55 µM [inhibitor, partial curve]
CNc1nc2[nH]c(=O)c3c(c2s1)OC(N)=C(C#N)C3c1cccc(F)c1 (stereo not drawn) 3.16 µM [inhibitor, full curve]
CC(=O)c1cnn(-c2nc3c(C)cccc3s2)c1C 28.2 µM [inhibitor, partial curve]
Cc1ccc(-c2nnc(Nc3ccc4c(c3)nc(C)n4C)c3ccccc23)cc1 35.5 µM [inhibitor, single point]
O=C(NCC1COc2ccccc2O1)C1CCCN(S(=O)(=O)c2cccc3cccnc23)C1 (stereo not drawn) 35.5 µM [inhibitor, partial curve, poor fit]
CCOC(=O)c1c(N)nn(C(=O)C(C)(C)C)c1-c1ccccc1 39.8 µM [inhibitor, single point]
CCC(C)NC(=O)c1ccc([N+](=O)[O-])c(Cl)c1 (stereo not drawn) 20 µM [inhibitor, partial curve]
CCOC(=O)c1c(C)c(C(=O)NCc2cccs2)c(C)n1CC 20 µM [inhibitor, partial curve]
O=C(O)c1cnc2ccccc2n1 31.6 µM [inhibitor, single point]
Cc1ccc(C(=O)CSc2nc3ccccc3c(=O)[nH]2)cc1 10 µM [inhibitor, full curve, poor fit]
COc1ccc(C(=O)Nc2oc(-c3ccccc3)c(-c3ccccc3)c2C#N)cc1OC 28.2 µM [inhibitor, partial curve]
Cn1c(=O)c(/C=C/c2ccccc2)nc2ccccc21 3.55 µM [inhibitor, single point]
CC(=O)OCC(=O)c1ccc2ccn(C(C)=O)c2c1 31.6 µM [inhibitor, partial curve]
COc1ccc2c(c1)C(=O)N(c1ccc(C)cc1C)C(=O)C2 14.1 µM [inhibitor, partial curve, poor fit]
Cc1ccc(NC(=S)NCC23C=CC(O2)C2C(=O)N(c4ccc(C)cc4)C(=O)C23)cc1 (stereo not drawn) 25.1 µM [inhibitor, single point]
COc1cccc(C(=O)/C=C/Nc2ccc(S(=O)(=O)Nc3onc(C)c3C)cc2)c1 1.41 µM [inhibitor, partial curve]
O=C(Cc1c(O)c2ccccc2[nH]c1=O)OC1CCCCC1 25.1 µM [inhibitor, partial curve]
N#CC1=C(N)C(C#N)(C#N)[C@H](c2ccoc2)[C@H]2CN(Cc3ccccc3)CC=C12 22.4 µM [inhibitor, partial curve, poor fit]
Cc1cc2cc3c(cc2nc1SCC(=O)OC(C)C)OCCO3 35.5 µM [inhibitor, single point]
Cc1cc(C)n2nc3nc(N4CCCCC4)nc(-c4ccco4)c3c2n1 22.4 µM [inhibitor, partial curve]
c1ccc(-c2nc(-n3nc4ccccc4n3)nc3ccccc23)cc1 25.1 µM [inhibitor, partial curve]
COc1ccc(-c2ccnc3nc(N4CCOCC4)nn23)cc1 14.1 µM [inhibitor, partial curve]
CSc1nc(C)c2c(n1)N(c1cccc(C)c1)CC2 10 µM [inhibitor, partial curve]
Cc1sc(=NC(=O)c2ccco2)n(C)c1-c1ccc(F)cc1 39.8 µM [inhibitor, single point]
COc1ccc(NC(=O)CNS(=O)(=O)c2ccc(Cl)cc2)cc1 25.1 µM [inhibitor, partial curve]
COc1cc2c(cc1NC(=O)CN1C(=O)NC3(CCc4ccccc43)C1=O)oc1ccccc12 (stereo not drawn) 22.4 µM [inhibitor, partial curve]
N#CC1=C(N)OC2=C(CCC/C2=C/c2ccoc2)C1c1ccoc1 (stereo not drawn) 39.8 µM [inhibitor, single point]
O=c1c2c(nc3c(-c4cccc5ccccc45)c[nH]n13)CCC2 14.1 µM [inhibitor, partial curve]
COc1ccc(CC(=O)N2CCN(C(=O)c3ccco3)CC2)cc1 17.8 µM [inhibitor, partial curve, poor fit]
COc1ccc(/C=C/c2nc3ccccc3n2Cc2ccccc2OC)cc1 28.2 µM [inhibitor, partial curve]
CCCC(=O)Nc1ccc2c(c1)nc1n2CCSC1 25.1 µM [inhibitor, partial curve]
C=CCNc1ncnc2ccc(Br)cc12 25.1 µM [inhibitor, partial curve]
Fc1ccc(CNc2cnccn2)cc1 31.6 µM [inhibitor, partial curve]
CCc1cccc(C)c1NC(=O)COC(=O)c1c2c(nc3ccccc13)/C(=C\c1cccs1)CCC2 25.1 µM [inhibitor, single point]

— PubChem BioAssay AID894 (National Center for Advancing Translational Sciences (NCATS), 2007)
